Assay results reported in PubChem BioAssay (NCATS).
Inconclusive results, whose numbers are uncertain, are shown with a selection of clear calls. Potencies of inconclusive entries are left out as doubtful fits. For some assays here: “Side channel” marks fits to a control or component signal instead of the main read-out. Activity calls are given as the source filed them. Unless noted, calls follow the shape of the dose curve; as a rule, active = well fitted cell-killing curve with a large enough effect; inconclusive = small, poorly fitted or top-dose-only effect; inactive = flat fitted curve, though single readings scatter.
Potency is read from the fitted curve at half-maximal effect; tags tell the direction and shape of the fitted curve.

Molecular target: Tyrosine-protein phosphatase non-receptor type substrate 1 (Homo sapiens) + Leukocyte surface antigen CD47 (Homo sapiens) (UniProt P78324+Q08722)
Sequence of UniProt P78324 (P78324 whole entry, looked up): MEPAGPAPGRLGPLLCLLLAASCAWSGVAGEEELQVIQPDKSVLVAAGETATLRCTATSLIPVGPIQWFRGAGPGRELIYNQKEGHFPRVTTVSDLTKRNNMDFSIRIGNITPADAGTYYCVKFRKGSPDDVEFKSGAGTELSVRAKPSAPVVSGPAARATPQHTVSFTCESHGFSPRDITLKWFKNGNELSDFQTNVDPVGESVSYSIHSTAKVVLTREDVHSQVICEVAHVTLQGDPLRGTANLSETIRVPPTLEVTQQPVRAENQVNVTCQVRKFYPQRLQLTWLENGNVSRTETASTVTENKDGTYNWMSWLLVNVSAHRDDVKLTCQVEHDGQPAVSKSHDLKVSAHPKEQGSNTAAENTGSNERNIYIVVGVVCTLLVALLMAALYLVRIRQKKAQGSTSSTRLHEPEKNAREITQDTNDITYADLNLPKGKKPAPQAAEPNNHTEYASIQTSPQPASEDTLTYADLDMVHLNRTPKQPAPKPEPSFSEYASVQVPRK
Sequence of UniProt P78324 (Q08722 whole entry, looked up): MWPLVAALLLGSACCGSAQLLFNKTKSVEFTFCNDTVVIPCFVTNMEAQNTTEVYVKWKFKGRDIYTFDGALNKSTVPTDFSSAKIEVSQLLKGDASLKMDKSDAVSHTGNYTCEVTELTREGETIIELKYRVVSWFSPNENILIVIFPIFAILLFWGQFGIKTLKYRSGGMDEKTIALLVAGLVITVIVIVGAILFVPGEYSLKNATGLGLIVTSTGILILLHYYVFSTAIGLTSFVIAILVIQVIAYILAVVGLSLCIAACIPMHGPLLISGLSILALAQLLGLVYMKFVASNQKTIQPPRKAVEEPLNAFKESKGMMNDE
Assay: CD47-SIRPalpha protein protein interaction - HTRF assay qHTS validation (AID 1347058; active = well fitted curve in the direction sought with a large enough effect in the signal ratio, not every such curve was filed as active; inconclusive = small, poorly fitted or top-dose-only effect, or effect the other way, or a change in a side signal; inactive = no such curve, though single readings can be large or run the other way; the % refers to the signal ratio; as to activity change, negative = inhibition: 0% is about no effect)
Conditions: TR-FRET HTRF CD47-His / biotin-SIRPalpha binding, ratio 665/615; series mostly up to 38.3 µM; activity change, negative = inhibition: at the top concentration
Outline: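 Soluble extracellular domains (6His-CD47, Avi-tag-biotinylated SIRPalpha) in PBS pH 7.4 with 0.05% IGEPAL CA-630. Compounds were preincubated 30 min at RT with CD47 and anti-His-Eu, then SIRPalpha and SAV-XL665 were added. TR-FRET 665/615 ratio.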
With `COc1cc2nc(N3CCCN(C)CC3)nc(NC3CCN(Cc4ccccc4)CC3)c2cc1OC` the “activity change, negative = inhibition” value was inactive: -11.3%.
For `O=C1NC(=O)C(c2ccccc2[N+](=O)[O-])=C1Nc1ccc(O)c(Cl)c1`, the Potency was inconclusive [side channel, falling, partial curve].
With `CCc1cccc(N(C)C(N)=Nc2cccc3ccccc23)c1` the “activity change, negative = inhibition” value was inactive: 9.1%.

System: not listed separately
Assay: qHTS of pediatric cancer cell lines to identify multiple opportunities for drug repurposing: Primary screen for TC32 cells (AID 1347089); also: nearly all actives have a fitted effect of over 60% in size; as to activity change, negative = cytotoxic: % is scaled to controls: 0 for no effect and ±100 for the full control effect
Conditions: TC32 Ewing sarcoma viability, CellTiter-Glo luminescence, 48 h; series mostly up to 45.8 µM; activity change, negative = cytotoxic: at the top concentration
Outline: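 Measured quantity: luminescence from CellTiter-Glo, reflecting metabolically active TC32 cells following 48 h of compound. Curves came straight from multi-point titrations, with 8 or 11 points in primary and 11 in confirmatory screening.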
For `CNCC(O)c1ccc(O)c(O)c1` (centres undefined), the “activity change, negative = cytotoxic” value was inactive: 8.04%.
For `COc1cc2c(cc1OC)CN(CCc1ccc(NC(=O)c3cc(OC)c(OC)cc3NC(=O)c3cnc4ccccc4c3)cc1)CC2`, the “activity change, negative = cytotoxic” value was inactive: 1.33%.
With `O=S(=O)(O)CCSSCCS(=O)(=O)O` the “activity change, negative = cytotoxic” value was inactive: 6.72%.
In the case of `NC(=O)N/N=C/c1ccc([N+](=O)[O-])o1`, the Potency is reported as inconclusive [cytotoxic, single point].
For `Cc1cnc(Nc2ccc(OCCN3CCCC3)cc2)nc1Nc1cccc(S(=O)(=O)NC(C)(C)C)c1`, the “activity change, negative = cytotoxic” value was inactive: 14.3%.
For `Nc1cc(C(F)(F)F)ccc1S`, the Potency was inconclusive [cytotoxic, single point].
In the case of `NS(=O)(=O)c1cc(C(=O)O)c(NCc2ccco2)cc1Cl`, the Potency is reported as inconclusive [cytotoxic, single point].
With `O=c1[nH]cc(F)c(=O)[nH]1` the Potency was inconclusive [cytotoxic, partial curve].
With `NC(=O)c1cccc2[nH]c(-c3ccc([C@H]4CCCN4)cc3F)nc12` the Potency was inconclusive [cytotoxic, single point].
In the case of `CC(C)(O)c1cc2nc(-c3cnc(N)nc3)nc(N3CCOCC3)c2s1`, the Potency is reported as active: 0.466 µM.
In the case of `CN(C)[C@@H]1C(=O)C(C(N)=O)=C(O)[C@@]2(O)C(=O)C3=C(O)c4c(O)cccc4C[C@H]3C[C@@H]12`, the “activity change, negative = cytotoxic” value is reported as inactive: 6.75%.
